Assay results: PubChem BioAssay AID1159614 (National Center for Advancing Translational Sciences (NCATS), 2016)
The whole screen tested about 45,000 compounds, of which about 65 (0.1%) were called active. Calls follow the shape of the dose curve; as a rule, active = well fitted activation curve with a large enough effect; inconclusive = small, poorly fitted or top-dose-only effect; inactive = no such curve, though single readings can be large or run the other way. The list shows a part of the results.

Molecular target: Galactocerebrosidase (Homo sapiens) (UniProt P54803)
Assay: A Novel Cell-Based Assay to Identify Small Molecules for B -Galactocerebrosidase; also: 0% is about no effect; nearly all actives have a fitted effect of over 65% in size
Details: 145M-Twi-hGALC-G270D cells (Twitcher mouse brain line with human GALC G270D), HMU-beta-Gal fluorescence, 48 h; series mostly up to 57.5 µM; activation: at the top concentration
Procedure, shortened: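 Brain-derived Twitcher mouse 145M-Twi cells stably expressing human GALC-G270D or wild-type GALC, treated live, then residual GALC activity read by fluorescence of HMU-b-Gal substrate (0.1 mM final) in citrate-phosphate buffer pH 5.2 with sodium taurocholate. Signal increase indicates enhancement.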

Chain of UniProt P54803 (P54803 whole entry, looked up): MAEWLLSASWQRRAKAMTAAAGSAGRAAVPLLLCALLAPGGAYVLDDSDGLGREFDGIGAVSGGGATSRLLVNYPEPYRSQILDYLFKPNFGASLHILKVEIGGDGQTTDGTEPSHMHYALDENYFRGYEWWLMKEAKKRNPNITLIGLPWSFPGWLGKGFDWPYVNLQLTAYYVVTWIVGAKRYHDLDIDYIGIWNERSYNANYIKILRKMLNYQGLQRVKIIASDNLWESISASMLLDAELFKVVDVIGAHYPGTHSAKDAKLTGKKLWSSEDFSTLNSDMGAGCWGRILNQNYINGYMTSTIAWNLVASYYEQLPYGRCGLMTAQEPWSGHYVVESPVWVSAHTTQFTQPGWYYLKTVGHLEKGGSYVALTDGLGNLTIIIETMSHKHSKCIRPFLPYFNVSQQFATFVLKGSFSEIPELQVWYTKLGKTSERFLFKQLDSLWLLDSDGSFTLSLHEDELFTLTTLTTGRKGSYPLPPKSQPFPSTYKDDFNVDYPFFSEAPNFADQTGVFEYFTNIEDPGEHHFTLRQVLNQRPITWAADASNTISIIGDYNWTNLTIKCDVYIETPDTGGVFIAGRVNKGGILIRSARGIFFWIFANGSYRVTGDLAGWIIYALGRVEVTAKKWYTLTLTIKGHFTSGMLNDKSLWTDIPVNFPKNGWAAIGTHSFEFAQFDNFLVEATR

activation, inactive:
N#Cc1ccccc1Cn1c(=O)n(CCCC(=O)NCc2ccc3c(c2)OCO3)c(=O)c2sccc21 -9.51%
Cc1ccc(NC(=O)C2CCCN(c3nnc(-n4c(C)ccc4C)s3)C2)c(C)c1 (stereo not given) 12.2%
CC(=O)N1c2c(cc(Br)cc2S(=O)(=O)N2CCN(c3cc(C)ccc3C)CC2)CC1C (stereo not given) -12.4%
Cc1ccccc1CN1C(=O)c2ccccc2S(=O)c2ccc(C(=O)NC3CCC(C)CC3)cc21 (stereo not given) 1.41%
Cc1ccc(S(=O)(=O)c2nnn3c2nc(N2CCCC2)c2sccc23)cc1C -8.02%
Cc1ccc(S(=O)(=O)c2nnn3c2nc(N2CCN(c4ccccc4F)CC2)c2cc(Cl)ccc23)cc1C -15.1%
O=C(c1ccc2c(c1)N(Cc1cccc(F)c1)C(=O)c1ccccc1S2)N1CCOCC1 -8.63%
COc1ccc(/C=C/C(=O)Nc2ccc3nc4c(c(Nc5ccccc5OC)c3c2)CCCC4)cc1 -12.6%
COc1ccc(OC)c(NC(=O)C2=C(C)C(=O)OC23CCCCCC3)c1 13.4%
CC1=C(C#N)C(NC(=O)c2ccccc2Cl)(C(F)(F)F)C(=O)N1 (stereo not given) -9.28%
CCc1ccc(NC(=O)c2sc3nc(C)c(Cl)c(C)c3c2NC(=O)c2ccccc2OC)cc1 -7.92%
Cc1ccc2c(=O)cc(C(=O)Nc3nc4ccc(Cl)cc4s3)oc2c1C -11%
CCOCCc1nn2c(=O)cc(COC(=O)CNC(=O)c3cccc(C)c3)nc2s1 -12.9%
O=C(COc1ccc(Cl)cc1)Nc1nnc(S(=O)(=O)N2CCc3ccccc32)s1 -8.54%
CCN(C(=O)CSc1nc2ncccc2[nH]1)c1ccc(C(C)C)cc1 -12.2%
COc1cccc(-c2ncnn2-c2sc3c(c2C#N)CCCCC3)c1OC -14.4%
Cc1ccc(CN(C(=O)COc2ccc([N+](=O)[O-])cc2)c2ccccn2)cc1 -23.7%
CCN(CC)CCCNC(=O)c1cn(C)c2ccc(S(=O)(=O)N(C)C3CCCCC3)cc2c1=O -20.7%
CCN(CC)CCCNC(=O)c1cnc(SC)nc1-c1ccccc1 -12.7%
CC(C)c1ccc(NC(=O)Cn2cc(S(=O)(=O)N3CCN(c4ccccc4F)CC3)c3ccccc3c2=O)cc1 -0.22%
COc1ccccc1NC(=O)c1c(NCc2ccc(OC)c(OC)c2OC)sc2c1CCC2 -6.57%
CCOC(=O)c1c(C)[nH]c(C)c1S(=O)(=O)N(C)CC(=O)N1CCN(c2ccccc2)CC1 -11.6%
CCOc1ccc(NC(=O)c2cnc(N3CCCC3)nc2C)cc1 -0.658%
COc1ccc(CNc2nc3c(-c4cccc(C)c4)nnn3c3ccccc23)cc1 -5.36%
CCOc1ccc(CCNC(=O)c2cn(C)c3ccc(S(=O)(=O)N4CCCCCC4)cc3c2=O)cc1OCC -4.5%
Cc1nn(CC(=O)N2CCC(C)CC2)c(=O)c2cc3sccc3n12 -17.5%
Cc1c(C(=O)NCC(c2ccc(Cl)cc2)N2CCOCC2)oc2ccccc12 (stereo not given) -3.07%
CCOc1ccc(N2CC(c3nc4ccccc4n3CCCOc3ccccc3)CC2=O)cc1 (stereo not given) -21.4%
CCCCOC(=O)c1ccc(NC(=O)c2cc3c(=O)n4cccc(C)c4nc3s2)cc1 -10.3%
CCCNC(=O)CCc1nnc2ccc(N3CCN(c4cccc(OC)c4)CC3)nn12 0.28%
CCCCN(C)CCNC(=O)c1c2c(nc3ccccc13)C(=O)N(C1CCCCC1)C2 -15.4%
Cc1cc(Cl)ccc1OCc1nc(-c2ccc(-n3cccc3)cc2)no1 -8%
OC(Cn1cncn1)(Cn1cncn1)c1ccc(F)cc1F -20.7%
CCC(=O)N1CCc2cc(Br)cc(S(=O)(=O)CCC(=O)NCCc3cccc(C)c3)c21 -3.22%
Cc1ccc(-n2c(=O)c3cccnc3n2CC(=O)Nc2ccc(Br)cc2)cc1C -8.59%
Cc1ccc(NC(=O)CCn2c(=O)c3cccn3c3ccccc32)cc1C -0.317%
Cc1ccc(CN2CCC(CNC(=O)Nc3ccc(Cl)cc3)C2)cc1 (stereo not given) -13.1%
CC(C)(C)OC(=O)N1CCC(c2c(C(=O)NCCN3CCc4ccccc4C3)cnn2-c2ccc(F)cc2F)CC1 -2.41%
CCOC(=O)N1CCc2c(sc(NCc3sccc3C)c2C(=O)Nc2ccc(OC)cc2OC)C1 -2.25%
Cn1ncc2c(N3CCN(c4cccc(Cl)c4)CC3)ncnc21 -1.26%
Cc1cc(C)cc(NC(=O)C(Cc2ccccc2)NS(=O)(=O)c2ccc3c(c2)c(=O)n(C)c(=O)n3C)c1 (stereo not given) 2.14%
CC(Oc1ccc(F)cc1)C(=O)N1CCC(c2nc3ccccc3s2)CC1 (stereo not given) -7.89%
CCOc1ccc(Oc2nc(NCC(C)C)nc(N3CCOCC3)n2)nn1 -16.6%
COc1ccccc1N1CCN(C(=O)c2nc(SC)ncc2Cl)CC1 -9.65%
COc1ccc(C)cc1NC(=O)CCS(=O)(=O)c1cc2c3c(c1)CCN3C(=O)CC2 -10.2%
O=C(Nc1cc(C(F)(F)F)ccc1Cl)c1nc2ccccc2nc1N1CCCCC1 -13%
O=C(CSc1nncn2c1cc1sccc12)Nc1ccc(Br)cc1F -11.1%
CCOC(=O)c1c(C)oc2nc(C)nc(NCc3ccc(OC)cc3OC)c12 -8.12%
CCc1ccccc1NC(=O)c1sc2nc3c(cc2c1N)CN(Cc1ccccc1)CC3 1.8%
COC(=O)c1cccnc1-n1c(=O)c2cccnc2n(CC(=O)Nc2ccccc2F)c1=O -21.9%
Clc1cccc(-n2ncc3c(N4CCC(Cc5ccccc5)CC4)ncnc32)c1 -16.4%
Cc1cc(C)cc(NC(=O)C(=O)NCC(c2cccnc2)N2CCc3ccccc3C2)c1 (stereo not given) -17.2%
CCCCNC(=O)C1CCC(Cn2c(=O)c3sccc3n(CC(=O)N3CCCC3)c2=O)CC1 (stereo not given) -24.5%
CCc1ccc(NC(=O)CCn2nc(C)c(S(=O)(=O)N3CCCCC3)c2C)cc1 -26.2%
O=C(Cn1c(=O)nc(-c2ccccc2)c2ccccc21)NCc1ccc(Cl)cc1 -5.56%
COc1cc(C2C(C(=O)Nc3ccccc3C)=C(C)Nc3ncnn32)ccc1OCC(N)=O (stereo not given) -1.49%
CCOc1ccccc1NC(=O)C1CCN(S(=O)(=O)c2ccc3c(c2)CC(C)N3C(C)=O)CC1 (stereo not given) -10.1%
COc1cccc(N2CCN(S(=O)(=O)c3ccc(-n4cnnn4)cc3)CC2)c1 -15.7%
CCOc1ccc(Cn2c(CNS(=O)(=O)c3ccc(Cl)s3)nc3cccnc32)cc1 2.47%
CCOC(=O)c1ccccc1NC(=O)Cn1c(=O)n(-c2cccc(C)c2)c(=O)c2c1c1cc(C)ccc1n2C -11.9%
COc1ccc2c(C)cc(SCC(=O)Nc3nsc(-c4ccccc4C)n3)nc2c1 -7.06%
O=C(NCc1ccc(Cl)cc1)C(=O)NCC(c1cccs1)S(=O)(=O)c1cccs1 (stereo not given) -6.75%
Nc1ccc(N2CCN(c3ncc(C(F)(F)F)cc3Cl)CC2)c(C(F)(F)F)c1 -16.6%
COc1ccc(Nc2cc(C(=O)NCCCN3CCN(c4ccc(OC)cc4)CC3)c3ccccc3n2)cc1 -8.82%
Cc1oc(C)c2c(=O)cc(-c3ccc4c(c3)OCO4)cc(OC(=O)c3cccc(Br)c3)c12 -7.01%
O=C(CCn1cnnn1)Nc1ccc(F)cc1 -10.4%
CN(c1ccccc1)S(=O)(=O)c1ccc(NC(=O)c2cc(=O)c3ccccc3o2)cc1 3.87%
Cc1ccc(NC(=O)CSc2ccc(-c3cccs3)nn2)cc1Cl -2.83%
COCC(=O)NCc1nc2cccnc2n1Cc1ccc(F)cc1 -10.2%
Cc1cc(NC(=O)c2cccc(Cl)c2)ccc1-c1cc2ccccc2oc1=O -25.3%
Cc1noc(-c2ccc(N3CCCCC3)c([N+](=O)[O-])c2)n1 -17.4%
Cc1ccccc1CCNC(=O)c1ccc2c(c1)nc1n2CCC(C)C1 (stereo not given) -16.9%
COc1ccc(-n2ncc(C(=O)NCCc3ccsc3)c2C2CCN(C(=O)OC(C)(C)C)CC2)cc1 -7.17%
Cc1ccc(Cn2c(CNS(=O)(=O)c3ccc(F)c(Cl)c3)nc3cccnc32)cc1 21.6%
Cc1cn[nH]c1 -31.5%
O=C1CS(=O)(=O)C2(C(=O)N(Cc3ccccc3)c3ccccc32)N1c1ccccc1 (stereo not given) -25.4%
O=C(C1CCN(c2ncnc3c2nc2n3CCCCC2)CC1)N1CCN(c2cccc(Cl)c2)CC1 -13.7%
COc1ccc(OC)c(CNC(=O)Cc2ccc(NC(=O)N3CCSc4ncccc43)cc2)c1 -36.8%
COc1cc2c(cc1OC)C(COc1ccccc1OC)N(C(=O)COc1ccc(Cl)cc1)CC2 (stereo not given) -18.6%
Cc1ccc(CCNC(=O)c2ccc3c(c2)nc2n3CCC(C)C2)cc1 (stereo not given) -6.27%
COc1ccc(-c2noc(-c3ccc(N4CCN(c5ccccc5)CC4)c([N+](=O)[O-])c3)n2)cc1OC -13.1%
CCOC(=O)C1(C)C=C(Nc2cccc(C(=O)O)c2)C(=O)N1c1cccc(C(=O)O)c1 (stereo not given) -10.2%
Cc1cc(F)ccc1NS(=O)(=O)c1ccc(-n2cccn2)cc1 -8.62%
Cc1ccc(CNS(=O)(=O)c2ccc3[nH]c4c(c3c2)CCCC4)cc1 -8.5%
CCCCc1nn2c(=O)cc(COC(=O)c3ccc(NC(=O)c4ccccc4C)cc3)nc2s1 -12.8%
Cc1cc(C)n(CCc2nc3c4ccccc4nc(N4CCN(c5ccccc5)CC4)n3n2)n1 0.85%
O=C(Nc1cccc(C(=O)OCc2cc(=O)n3nc(C4CC4)sc3n2)c1)c1cccc(F)c1 -15.1%
Cc1ccc(N(CC(=O)N2CCN(c3ccccc3F)CC2)S(=O)(=O)c2c(C)noc2C)cc1 -18.9%
Cc1ccc(CCNC(=O)C(NS(=O)(=O)c2ccc3c(c2)oc(=O)n3C)C(C)C)cc1 (stereo not given) -1.73%
CCOC(=O)CSc1ccc2nnc(CCNS(=O)(=O)c3ccccc3)n2n1 -4.11%
COc1ccc(NC(=O)CSc2nncn3c2cc2oc(C)cc23)cc1OC -23.3%
Cc1ccc(N(CC(=O)Nc2cccc(F)c2)S(=O)(=O)c2cccs2)cc1 -16.8%
CCOc1ccc(-n2c(SCC(=O)NCC3CCCO3)nc3c([nH]c4ccccc43)c2=O)cc1 (stereo not given) -9.62%
COc1cc2c(cc1OC)C(COc1ccc3c(C)cc(=O)oc3c1)N(C(=O)c1cccc(C)c1)CC2 (stereo not given) -15.3%
COc1ccc(Cn2ccn(Cc3cccc(C)c3)c(=O)c2=O)cc1 -7.01%
